# From the supplement of paper PMC10723795
# Counter-ions that a name gives are not always drawn. This is one part of the list.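 The calls were made as follows: active = more than 2 SD below the DMSO mean: under 0.85 at 10 µM or 0.885 at 1 µM; inactive = the rest.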 Single values are uncertain, as repeats are few or missing. Where a SMILES comes first, the peptide text is derived from it. [ ]: non-standard residue; d: D form.
# Test system: RPE1
# Test: nucleolar normality score relative to DMSO (fraction of DMSO control); RPE1 is a non-cancer human cell line; higher = more normal nucleoli (less nucleolar stress)
# Settings: 24 h
# 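Also: fixed cells immunolabelled for nucleolin and UBF, 40 image fields per well in 384-well plates, per-cell score = nucleolin nucleolar/nucleoplasm intensity ratio divided by the matching UBF ratio.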
SMILES,nucleolar normality score (1 µM),nucleolar normality score (10 µM)
COc1cc(O)cc2c1C(=O)C[C@@H](c1ccccc1)O2 [Alpinetin],inactive: 1.01,inactive: 0.887
"COC1=CC(=O)c2ccccc2C1=O [2-Methoxy-1,4-naphthoquinone]",inactive: 0.935,active: 0.789
C[C@@H](O[C@H]1OCCN(Cc2n[nH]c(=O)[nH]2)[C@H]1c1ccc(F)cc1)c1cc(C(F)(F)F)cc(C(F)(F)F)c1 [Aprepitant],inactive: 1.01,inactive: 1.04
NC(=O)c1ccc(-c2nc(-c3ccccn3)c(-c3ccc4c(c3)OCO4)[nH]2)cc1,inactive: 0.977,inactive: 1.05
Cc1cn(-c2cc(NC(=O)c3ccc(C)c(Nc4nccc(-c5cccnc5)n4)c3)cc(C(F)(F)F)c2)cn1 [Nilotinib (AMN-107)],inactive: 0.974,inactive: 1.03
Cc1cn(-c2cc(NC(=O)c3ccc(C)c(Nc4nccc(-c5cccnc5)n4)c3)cc(C(F)(F)F)c2)cn1 [Nilotinib hydrochloride],inactive: 1.03,inactive: 0.997
CNC(=O)c1cc(Oc2ccc3nc(N[C@@H]4CCCC[C@H]4O)sc3c2)ccn1,inactive: 1.09,inactive: 1.05
COc1ccc(-c2nc(-c3cc(C(F)(F)F)cc(C(F)(F)F)c3)n(Cc3ccc(C(N)=O)cc3)c2-c2ccc(OC)cc2)cc1 [Apoptozole],inactive: 1.02,inactive: 1.04
CC(=O)c1c(C)c2cnc(Nc3ccc(N4CCNCC4)cn3)nc2n(C2CCCC2)c1=O,inactive: 0.903,inactive: 1.14
C[C@H]1[C@H](C)CC[C@]2(C(=O)O[C@@H]3O[C@H](CO[C@@H]4O[C@H](CO)[C@@H](O[C@@H]5O[C@H](C)[C@H](O)[C@@H](O)[C@H]5O)[C@H](O)[C@H]4O)[C@@H](O)[C@H](O)[C@H]3O)CC[C@]3(C)C(=CC[C@@H]4[C@@]5(C)C[C@@H](O)[C@H](O)[C@@](C)(CO)[C@@H]5CC[C@]43C)[C@H]12 [Asiaticoside],inactive: 1.09,inactive: 0.919
NC(C=O)C(O)C(O)C(O)CO (stereo not given) [Glucosamine sulfate],inactive: 1.05,inactive: 1.09
Cn1cc(/C=C2\C(=O)Nc3cccnc32)c2ccccc21,inactive: 1.06,inactive: 1.08
CNC(=O)c1ccc(Nc2ncc(C(F)(F)F)c(NCc3nccnc3N(C)S(C)(=O)=O)n2)cc1,inactive: 1.08,active: 0.233
CC(=NNC(=S)N1CCC1)c1ccccn1,active: 0.533,active: 0.615
CN1C(=O)C(Cc2c[nH]c3ccccc23)NC1=S (stereo not given) [Necrostatin-1],inactive: 1.05,inactive: 1.01
Nc1nc(OCC2CCCCC2)c2[nH]cnc2n1,inactive: 1,inactive: 0.987
CCn1c(-c2nonc2N)nc2c(C#CC(C)(C)O)ncc(OC[C@H]3CCCNC3)c21,inactive: 0.956,inactive: 0.996
Cc1cnc(-c2ccccc2C(C)C)nc1NCc1ccc(-n2ccnn2)cc1,inactive: 1.04,inactive: 1.06
Nc1ccc(-c2ccc3ncc4ccc(=O)n(-c5cccc(C(F)(F)F)c5)c4c3c2)cn1 [Torin 2],active: 0.596,active: 0.55
COc1cc2nc(N3CCCC3)nc(NCCCCCN3CCCC3)c2cc1OC,inactive: 0.893,inactive: 0.875
C#Cc1cccc(Nc2ncnc3cc(OCCOC)c(OCCO)cc23)c1,inactive: 0.958,inactive: 1.02
Cn1cnc2c(F)c(Nc3ccc(Br)cc3F)c(C(=O)NOCCO)cc21,inactive: 1.08,inactive: 0.926
CN1CCC(Nc2nc(Nc3ccc(Oc4ccccc4)cc3)c3c(=O)[nH]cc(Br)c3n2)CC1,inactive: 0.968,inactive: 0.9
CC(=O)O[C@H]1C(=O)[C@@]2(C)[C@H]([C@H](OC(=O)c3ccccc3)[C@]3(O)C[C@H](OC(=O)[C@H](O)[C@@H](NC(=O)c4ccccc4)c4ccccc4)C(C)=C1C3(C)C)[C@]1(OC(C)=O)CO[C@@H]1C[C@@H]2O [Paclitaxel],active: 0.725,active: 0.76
COc1cccc2c1C(=O)c1c(O)c3c(c(O)c1C2=O)C[C@@](O)(C(=O)CO)C[C@@H]3O[C@H]1C[C@H](N)[C@@H](O)[C@H](C)O1 [Epirubicin HCl],inactive: 0.905,active: 0.508

SMILES,nucleolar normality score (1 µM),nucleolar normality score (10 µM)
C=C(C)[C@@H]1CC[C@]2(CO)CC[C@]3(C)[C@H](CC[C@@H]4[C@@]5(C)CC[C@H](O)C(C)(C)[C@@H]5CC[C@]43C)[C@@H]12 [Betulin],inactive: 1.02,inactive: 0.899
O=[N+]([O-])c1ccc(Nc2ccccc2-c2ccccc2)c2nonc12,inactive: 1.04,inactive: 1.05
CC1=C(/C=C/C(C)=C/C=C/C(C)=C/CO)C(C)(C)CCC1 [Vitamin A],inactive: 1,inactive: 1.02
OCCn1cc(-c2cnc3nnn(Cc4ccc5ncccc5c4)c3n2)cn1,inactive: 1.03,inactive: 1.11
Cc1ccc(-n2nc(C(C)(C)C)cc2NC(=O)NCc2cc(F)ccc2Oc2ccc3c(cnn3CCO)c2)cc1 [Pexmetinib (ARRY-614)],inactive: 0.938,inactive: 1.03
Oc1ccc(-c2nc(-c3ccc(F)cc3)c(-c3ccncc3)[nH]2)cc1,inactive: 0.987,inactive: 1.05
O=C(O)c1cc(=O)[nH]c(=O)[nH]1 [Orotic acid (6-Carboxyuracil)],inactive: 1.02,inactive: 0.916
C[C@@H]1O[C@@H](O[C@H]2[C@H](OC(=O)[C@]34CCC(C)(C)C[C@H]3C3=CC[C@@H]5[C@@]6(C)C[C@H](O)[C@@H]7O[C@@H]8O[C@H](CO)[C@@H](O)[C@H](O)[C@H]8O[C@@H]8OC[C@H](O)[C@H](O)[C@H]8OC(=O)CC(C)(O)CC(=O)OC[C@@]7(C)[C@@H]6CC[C@@]5(C)[C@]3(C)CC4)OC[C@H](O)[C@@H]2O)[C@H](O)[C@H](O[C@@H]2OC[C@@H](O)[C@H](O)[C@H]2O)[C@H]1O (stereo not given in full) [Tubeimoside I],inactive: 1,inactive: 0.932
Cc1ccccc1C(C(=O)NC1CCCCC1)N(C(=O)Cn1ccnc1C)c1cccc(F)c1 (stereo not given),inactive: 0.933,inactive: 1.03
CONC(=O)c1ccccc1Nc1cc(Nc2cc(C)nn2C(C)C)ncc1Cl,inactive: 0.997,inactive: 1.04
O=C(O)C(Cc1ccccc1[N+](=O)[O-])=NNc1nc(-c2ccc(Cl)c(Cl)c2)cs1,inactive: 1.03,inactive: 0.952
CCn1cc(C(=O)O)c(=O)c2cc(F)c(N3CCNCC3)nc21 [Enoxacin Sesquihydrate],inactive: 1.04,inactive: 1.02
COCCOc1nc(-c2ccc(Cl)c(Cl)c2)n(-c2ccc(NC(=O)CCl)cc2)n1 [MI-2 (MALT1 inhibitor)],inactive: 1.11,inactive: 1.09
Nc1ccc(S(=O)(=O)NC(=O)c2ccccc2)cc1 [Sulfabenzamide],inactive: 1.03,inactive: 1.08
C[C@@H](O)[C@H]1C(=O)N2C(C(=O)O)=C(S[C@@H]3CN[C@H](C(=O)Nc4cccc(C(=O)O)c4)C3)[C@H](C)[C@H]12 [Ertapenem sodium],inactive: 1.08,inactive: 1
N=C(N)NCCC[C@@H](N)C(=O)N[C@H](CCCNC(=N)N)C(=O)N[C@H](CCCNC(=N)N)C(=O)N[C@H](CCCNC(=N)N)C(=O)N[C@H](CCCNC(=N)N)C(=O)N[C@H](CCCNC(=N)N)C(=O)N[C@H](CCCNC(=N)N)C(=O)N[C@H](CCCNC(=N)N)C(=O)N[C@H](CCCNC(=N)N)C(=O)N[C@H](CS)C(=O)N[C@H](CCC(N)=O)C(=O)N[C@H](CS)C(=O)N[C@H](CCCNC(=N)N)C(=O)N[C@H](CCCNC(=N)N)C(=O)N[C@H](CCCCN)C(=O)N[C@H](CC(N)=O)C(=O)O (H-[dR][dR][dR][dR][dR][dR][dR][dR][dR][dC][dQ][dC][dR][dR][dK][dN]-OH),inactive: 1.05,inactive: 1.09
O=C(COc1cccc2c(=O)[nH]ccc12)c1ccccc1,inactive: 1,inactive: 1.03
CC(C)OC(=O)C(C(=O)OC(C)C)=C1SC=CS1 [Malotilate],inactive: 0.949,inactive: 1.06
CCS(=O)(=O)Nc1ccc(Oc2ccc(F)cc2F)c(-c2cn(C)c(=O)c3[nH]ccc23)c1 [Mivebresib(ABBV-075)],inactive: 0.981,inactive: 0.887
C=C(C)[C@@H]1CC[C@]2(C(=O)O)CC[C@]3(C)[C@H](CC[C@@H]4[C@@]5(C)CC[C@H](O)C(C)(C)[C@@H]5CC[C@]43C)[C@@H]12 [Betulinic acid],inactive: 0.917,active: 0.684
O=C(NOCC1CC1)c1ccc(F)c(F)c1Nc1ccc(I)cc1Cl,inactive: 1.03,inactive: 1.09
Nc1nc(F)nc2c1ncn2[C@@H]1O[C@H](COP(=O)(O)O)[C@@H](O)[C@@H]1O [Fludarabine Phosphate],inactive: 1.07,inactive: 1.08
"Cc1ccc2c(c1)C(=O)C1(O)CCN(c3ccccc3)C1=N2 (single isomer, unassigned; (-)) [(-)-Blebbistatin]",inactive: 1.01,inactive: 0.873
CS(=O)(=O)c1ccc(C(=O)Nc2ccc(Cl)c(-c3ccccn3)c2)c(Cl)c1 [Vismodegib (GDC-0449)],inactive: 0.928,inactive: 1.04
O=C1C(c2c(O)[nH]c3ccccc23)=Nc2ccccc21 [Indirubin],inactive: 0.983,active: 0.844
